The campaign covered roughly 46,000 compounds. About 60 (0.1%) were called active. Inconclusive results (about 3%) are left out. Calls follow the shape of the dose curve; as a rule, active = well fitted inhibition curve with a large enough effect; inconclusive = small, poorly fitted or top-dose-only effect; inactive = no such curve, though single readings can be large or run the other way. Some of the results follow.
Experiment: Primary qHTS assay for Inhibitors of ovarian cancer metastasis using an organotypic tumor microenvironment (TME) model. Also: nearly all actives have a fitted effect of over 65% in size.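 As to activity change, negative = inhibition: plate controls were DMSO wells for no effect and tomatine positive control wells for full effect.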
Settings: SKOV3ip1-GFP adhesion/invasion on 3D omental model, fluorescence; series mostly up to 45.8 µM; activity change, negative = inhibition: at the top concentration
In short: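 qHTS, 4-pt dose (0.36-46 umol/L); SKOV3ip1-GFP, 1,200 cells/well, no FBS; primary omental fibroblast/mesothelial co-culture 48 h pre-grown; 2 h RT + 16 h 37 C; PBS wash, 4% PFA; GFP count 488/509 nm.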

Activity change, negative = inhibition, inactive:
O=C(Nc1cccc(Nc2ncc(Br)c(NCCc3cnc[nH]3)n2)c1)N1CCCC1 14.5%, Cc1ccc(CNC(=O)CN(C)S(=O)(=O)c2ccc(Br)s2)cc1 0.323%, CC(C)c1ccccc1NC(=O)CSc1nnc(COc2ccccc2)o1 -2.97%, O=C(Nc1ccc(Cl)c(Cl)c1)c1cc(S(=O)(=O)N2CCN(c3cccc(Cl)c3)CC2)ccc1F -3.66%, Cc1oc2ncn(CC(C)C)c(=O)c2c1C(=O)Nc1cccc(C(F)(F)F)c1 3.6%, Cc1cc(Br)ccc1NC(=O)c1coc(=O)c2ccccc12 4.77%, COc1ccc(-c2cn(-c3ccc(C)cc3)c(S(=O)(=O)CC(=O)Nc3ccccc3)n2)cc1 4.62%, CCOc1ccccc1CNC(=O)CCCN1C(=O)COc2ccc(C)cc21 -7.66%, CCCOc1ccc(C(=O)NCC(c2ccc(OC)cc2)N2CCCCC2)cc1 (stereo unspecified) -2.61%, COc1ccc(-c2nnc(SCC(=O)Nc3ccccc3C)o2)cc1OC 4.14%, Cc1nn(CCC(=O)NCc2cccc(Br)c2)c(=O)c2nn(-c3ccccc3)c(C)c12 1.51%, CC(C)OCCCn1c(SCC(N)=O)nc2c(sc3ccccc32)c1=O -27.2%, O=C(NCCCCc1ccccc1)c1nn(-c2ccccc2F)nc1CO -0.891%, C1Cc2[nH]nc(-c3nn[nH]n3)c2C1 -6.88%, CC(NC(=O)c1ccc(CSc2nc3ccncc3n2Cc2ccc(F)cc2)cc1)c1ccccc1 (stereo unspecified) -8.49%, CCCCCn1c(=O)[nH]c2cc(C(=O)NCc3ccc(F)cc3)ccc2c1=O 9.85%, Cc1cccc(-n2c(=O)c3c(c4cc(C)ccc4n3C)n(CC(=O)Nc3ccccc3Cl)c2=O)c1 -9.95%, O=C(O)[C@H](CC(=O)N1C[C@@H]2CCCC[C@H]2C1)Cc1ccccc1 9.32%, Cc1ccccc1OCC(=O)Nc1c(C)ccc2nsnc12 -0.238%, COc1ccc(NS(=O)(=O)c2ccc3c(c2)CCCN3C(=O)C2CCC2)cc1OC -7.92%, CCOC(=O)N1CCc2c(sc3c2c(=O)n(-c2ccc(CC)cc2)c(=O)n3CC(=O)c2ccccc2)C1 -4.55%, Cc1ccc(NC(=O)C2CCN(C(=O)c3cnn(-c4ccccc4)c3-n3cccc3)CC2)cc1 105%, Cc1c(C(=O)Nc2ccccc2Br)oc2ccc(S(=O)(=O)N3CCOCC3)cc12 -0.442%, COc1nc(N)nc2c1ncn2[C@@H]1O[C@H](CO)[C@@H](O)[C@@H]1O -10.1%, CCC1CN(C(=O)N2CCC(C(=O)N3CCN(c4ccc(F)cc4)CC3)CC2)c2ccccc2O1 (stereo unspecified) -4.87%, COc1ccc(CCC(=O)NCc2nc3cccnc3n2Cc2cccc(OC)c2)cc1 -1.6%, COc1ccccc1CNC(=O)C1CCN(Cc2cc3ccccc3n2Cc2cccc(C)c2)CC1 -19.9%, O=C(NCc1ccccc1Cl)c1ccc(NC(=O)c2nsc3ccccc23)cc1 1.06%, Cc1ccccc1Cn1c(=O)n(CCCCC(=O)NCc2ccccc2Cl)c(=O)c2ccccc21 -14.8%, CC(C)CNC(=O)c1c(-c2ccccc2)c(-c2ccccc2)nn(C)c1=O -18.9%, COc1ccc2c(c1)CC(NC(=O)Nc1ccc(NC(C)=O)cc1)CO2 (stereo unspecified) -4.55%, COc1ccc2c(Oc3ccc(NC(=O)c4c(C)n(CC(C)(C)O)n(-c5ccccc5)c4=O)cc3F)ccnc2c1 10.5%, CCOc1ccc2nc(N3CCC(C(=O)Nc4ccc(Br)cc4F)CC3)sc2c1 19.4%, CCOc1cc(C)c(C(C)C)cc1S(=O)(=O)n1ccnc1CC 2.51%, CCOc1ccc(NC(=O)C2CCN(S(=O)(=O)c3ccc4c(c3)oc(=O)n4C)CC2)cc1 8.62%, CC(=O)N1CCOc2cc(S(=O)(=O)Nc3cc(C(F)(F)F)ccc3Cl)c(C)cc21 3.51%, CCCNC(=O)c1c(NC(=O)c2ccc(C)cc2)sc2c1CCCCC2 -1.18%, Cc1ccc(-c2noc(-c3nnn(CC(=O)Nc4cccc(C(F)(F)F)c4)c3N)n2)cc1 -27.9%, CCOC(=O)c1cccc(NC(=O)Nc2ccc3c(c2)N(C)C(=O)c2ccccc2S3)c1 9.1%, CCOC(=O)c1c(C)oc2nc(C)nc(NCCCN3CCN(c4cc(Cl)ccc4C)CC3)c12 11.5%, O=C(NCCCN1CCN(c2ccccc2F)CC1)C1COc2ccccc2C1 (stereo unspecified) 6.3%, O=C(Nc1cccc(-c2nc3ccccc3[nH]2)c1)c1c(F)cccc1F -3.37%, COc1ccc(S(=O)(=O)Cc2ccc(C(=O)N3CCN(c4cc(C)ccc4C)CC3)o2)cc1 15.7%, O=C(O)c1cccnc1SCc1cccc(Cl)c1 -0.323%

outcome, inactive:
O=C(O)Cc1sc(Nc2ccc(C(=O)O)cc2)nc1-c1ccccc1, CCOC(=O)c1noc2ncn(CC(=O)Nc3cc(Cl)ccc3OC)c(=O)c12, O=C(Cn1cnc2onc(-c3ccc(F)cc3)c2c1=O)N1CCN(c2ccccc2F)CC1, CC(C)NC(=O)Cn1ccc2cc(S(=O)(=O)N3CCCCCC3)ccc21, CCn1c(=O)c2sccc2n2c(CCC(=O)N3CCN(c4ccccc4OC)CC3)nnc12, Cc1cccc(OCCCSc2nc(-c3ccc(C(C)(C)C)cc3)nc3cc(=O)[nH]n23)c1C, O=S(=O)(c1ccccc1)c1nc(-c2cccs2)oc1N1CCCCC1, COCCNC(=O)c1ccc2c(c1)N(Cc1ccc(C(F)(F)F)cc1)C(=O)c1ccccc1S2, CC1CCN(S(=O)(=O)c2ccc3c(ccn3CC(=O)NCc3ccc(N(C)C)cc3)c2)CC1, CC(C)c1ccc(S(=O)(=O)c2nnn3c2nc(N2CCOCC2)c2sccc23)cc1, CCCCc1nn2c(=O)cc(COC(=O)C(C)Oc3ccccc3)nc2s1 (stereo unspecified), COc1ccc(Cl)cc1NC(=O)Cn1nc(C(F)(F)F)c2c1CCC2, O=C(CSc1nnc(-c2ccncc2)n1-c1ccccc1)Nc1ccc(Br)cc1, CCSc1ncc(Cl)c(C(=O)N(Cc2ccc(C(C)(C)C)cc2)C2CCS(=O)(=O)C2)n1 (stereo unspecified), COc1ccc2c(c1)c1c(c(=O)n(Cc3ccccc3)c(=O)n1Cc1ccccc1)n2C, Cc1ccc(C(=O)NCC(=O)OCc2cc(=O)n3nc(C4CC4)sc3n2)cc1, CCOc1ccc(S(=O)(=O)Nc2ccc(OC)c(Cl)c2)c2cccnc12

Reference: PubChem BioAssay AID1963576 (National Center for Advancing Translational Sciences (NCATS), 2024)
